# Experimental data published in PubChem BioAssay (Tox21).
# Values joined by “and” are separate entries in the source; they are usually repeats but may differ in a detail not shown here. Equal entries are not always repeated. The shares of active, inactive and inconclusive entries below differ from those in the screen. For part of these data: Where the call is inconclusive, the potency comes from a doubtful curve fit. Active and inactive are the calls of the source. Unless noted, calls follow the shape of the dose curve; as a rule, active = well fitted curve in the direction sought with a large enough effect in the repeat runs; inconclusive = weak or mixed curves; inactive = no such curve, though single readings can be large; an effect the other way counts as inactive or inconclusive.
# Tests used:
# [1] = qHTS assay for small molecule agonists of the antioxidant response element (ARE) signaling pathway (AID 743202; active = well fitted activation curve with a large enough effect in the signal ratio in the repeat runs, not every such curve was filed as active; inconclusive = weak or mixed curves, or effect the other way; inactive = no such curve, though single readings can be large or run the other way; the % refers to the signal ratio; also: potency is read from the fitted curve at half-maximal effect; as to activation: % is scaled to controls: 0 for no effect and ±100 for the full control effect); details: HepG2 ARE-bla reporter, beta-lactamase FRET, 16 h
# Procedure, shortened: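 HepG2 ARE-bla reporter line, 2,000 cells/well; 5 h preincubation 37 C/5% CO2; compound (DMSO) 16 h 37 C; B/G FRET substrate 2 h RT; fluorescence intensity.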
# [2] = qHTS assay for small molecule agonists of the antioxidant response element (ARE) signaling pathway - cell viability counter screen (AID 743203; calls by dose curve; also: nearly all actives have a fitted effect of over 55% in size; also: potency is read from the fitted curve at half-maximal effect); details: ARE-bla HepG2 viability, CellTiter-Glo luminescence, 16 h; viability change, negative = cytotoxic: at 73.3 µM (top of the series)
# Procedure, shortened: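 Cytotoxicity was tested in parallel with the ARE reporter screen. ARE-bla HepG2 cells were exposed to compounds for 16 hrs, and viability was taken from CellTiter-Glo luminescence.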
# [3] = qHTS assay to identify small molecule antagonists of the peroxisome proliferator-activated receptor delta (PPARd) signaling pathway - cell viability counter screen (AID 743213); details: PPARd-bla HEK293H viability, CellTiter-Glo luminescence, 17 h; viability change, negative = cytotoxic: at 62 µM (top of the series) unless noted; also: nearly all actives have a fitted effect of over 50% in size; also: potency is read from the fitted curve at half-maximal effect
# Procedure, shortened: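 Viability counter-screen, qHTS format: PPARd-bla HEK293H, L165041 300 nM final, 17 h compound exposure at 37 C, CellTiter-Glo luminescence after 30 min RT.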
# [4] = qHTS assay to identify small molecule agonists of the vitamin D receptor (VDR) signaling pathway - cell viability counter screen (AID 743224); details: VDR-bla HEK293T viability, CellTiter-Glo luminescence, 16 h; activity change, negative = cytotoxicity: at 62.6 µM (top of the series); also: potency is read from the fitted curve at half-maximal effect; nearly all actives have a fitted effect of over 50% in size
# Procedure, shortened: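 Cells: VDR-bla, 2,000/well, settled 4 h. Treatment: compounds in DMSO, 16 h, 37C/5% CO2. Readout: CellTiter-Glo luminescence after 30 min RT.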
# [5] = qHTS assay to identify small molecule agonists of the farnesoid-X-receptor (FXR) signaling pathway - cell viability counter screen (AID 743218); details: FXR-bla HEK293T viability, CellTiter-Glo luminescence, 16 h; viability change, negative = cytotoxic: at 62.6 µM (top of the series) unless noted; also: potency is read from the fitted curve at half-maximal effect; nearly all actives have a fitted effect of over 45% in size
# Procedure, shortened: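 Cells were seeded, left 5 h at 37 C and 5% CO2, then dosed with compound in DMSO for 16 h. After the beta-lactamase FRET read, CellTiter-Glo was added and luminescence measured 30 min later.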
# [6] = qHTS assay to identify small molecule antagonists of the vitamin D receptor (VDR) signaling pathway - cell viability counter screen (AID 743225); details: VDR-bla HEK293T viability, CellTiter-Glo luminescence, 16 h; viability change, negative = cytotoxic: at 61 µM (top of the series) unless noted; also: nearly all actives have a fitted effect of over 50% in size; also: potency is read from the fitted curve at half-maximal effect; as to viability change, negative = cytotoxic: % is scaled to controls: 0 for no effect and ±100 for the full control effect
# Procedure, shortened: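 Same-well multiplex: following 16 h treatment of HEK 293T cells carrying a UAS-driven beta-lactamase reporter with compound and agonist (3 nM final), and a 2 h FRET substrate step, CellTiter-Glo was added and luminescence read after 30 min.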
# [7] = target: Peroxisome proliferator-activated receptor delta (Homo sapiens) (UniProt Q03181); assay: qHTS assay to identify small molecule antagonists of the peroxisome proliferator-activated receptor delta (PPARd) signaling pathway (AID 743215; active = well fitted inhibition curve with a large enough effect in the signal ratio in the repeat runs, not every such curve was filed as active; inconclusive = weak or mixed curves, or effect the other way; inactive = no such curve, though single readings can be large or run the other way; the % refers to the signal ratio;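 also: cells stimulated with agonist L165041 at 300 nM final during compound exposure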; also: potency is read from the fitted curve at half-maximal effect; as to ratio activity, negative = inhibition: % is scaled to controls: 0 for no effect and ±100 for the full control effect); details: HEK293H PPARd-UAS-bla, beta-lactamase FRET ratio, antagonist, 17 h; ratio activity, negative = inhibition: at 62 µM (top of the series) unless noted
# Procedure, shortened: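 Cells: HEK293H with a UAS-driven beta-lactamase reporter responsive to PPARd. Compounds were co-added with L165041 (300 nM, final) and incubated 17 h at 37 C before a 2 h room-temperature FRET substrate step and fluorescence reading.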
# [8] = qHTS assay to identify small molecule antagonists of the farnesoid-X-receptor (FXR) signaling pathway - cell viability counter screen (AID 743221; active = well fitted cell-killing curve with a large enough effect in the repeat runs, not every such curve was filed as active; inconclusive = weak or mixed curves, or effect the other way; inactive = no such curve, though single readings can be large or run the other way; also: % is scaled to controls: 0 for no effect and ±100 for the full control effect; nearly all actives have a fitted effect of over 50% in size); details: FXR-bla HEK293T viability, CellTiter-Glo luminescence, 16 h; activity change, negative = cytotoxicity: at 62.6 µM (top of the series) unless noted
# Procedure, shortened: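 Cytotoxicity is taken from ATP luminescence (CellTiter-Glo, 30 min, room temperature) in FXR-bla HEK 293T cells previously incubated 16 h at 37 C with compound and chenodeoxycholic acid at 50 uM final.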
# [9] = qHTS assay to identify small molecule agonists of the peroxisome proliferator-activated receptor delta (PPARd) signaling pathway - cell viability counter screen (AID 743211); details: PPARd-bla HEK293H viability, CellTiter-Glo luminescence, 17 h; activity change, negative = cytotoxicity: at 62.6 µM (top of the series); also: nearly all actives have a fitted effect of over 55% in size; also: potency is read from the fitted curve at half-maximal effect
# Procedure, shortened: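 Tox21 library compounds, delivered in DMSO, were incubated 17 h with PPARd-bla HEK293H cells; cytotoxicity was taken from CellTiter-Glo luminescence read 30 min after reagent addition.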
# [10] = target: Peroxisome proliferator-activated receptor delta (Homo sapiens) (UniProt Q03181); assay: qHTS assay to identify small molecule agonists of the peroxisome proliferator-activated receptor delta (PPARd) signaling pathway (AID 743212; calls by dose curve; also: % is scaled to controls: 0 for no effect and ±100 for the full control effect); details: HEK293H PPARd-UAS-bla, beta-lactamase FRET ratio, 17 h; activation: at 62.6 µM (top of the series) unless noted
# Procedure, shortened: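 Read-out: beta-lactamase FRET fluorescence after 2 h room-temperature incubation with LiveBLAzer B/G substrate. Cells were HEK293H carrying a UAS-bla reporter for PPARd, treated at 37 C with DMSO-dissolved compounds.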
# [11] = target: Vitamin D3 receptor (Homo sapiens) (UniProt P11473); assay: qHTS assay to identify small molecule agonists of the vitamin D receptor (VDR) signaling pathway (AID 743222; calls by dose curve; also: potency is read from the fitted curve at half-maximal effect); details: HEK293T VDR-UAS-bla, beta-lactamase FRET ratio, 16 h; activation: at 63.5 µM (top of the series) unless noted
# Procedure, shortened: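 Cells carrying a VDR-driven beta-lactamase reporter are seeded at 2,000 per well and rested 4 h. Compounds in DMSO are added for 16 h at 37C, and FRET substrate fluorescence is measured after 2 h at room temperature.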
# [12] = target: Vitamin D3 receptor (Homo sapiens) (UniProt P11473); assay: qHTS assay to identify small molecule antagonists of the vitamin D receptor (VDR) signaling pathway (AID 743223; active = well fitted inhibition curve with a large enough effect in the signal ratio in the repeat runs, not every such curve was filed as active; inconclusive = weak or mixed curves, or effect the other way; inactive = no such curve, though single readings can be large or run the other way; the % refers to the signal ratio; also: potency is read from the fitted curve at half-maximal effect); details: VDR-UAS-bla HEK293T, beta-lactamase FRET ratio, 16 h; activity change, negative = inhibition: at 61 µM (top of the series) unless noted
# Procedure, shortened: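 Quantitative HTS in VDR-bla reporter cells stimulated with 1alpha,25-dihydroxyvitamin D3, 3 nM final. Compound exposure 16 h, 37C, 5% CO2. Read-out: beta-lactamase FRET substrate fluorescence, 2 h RT.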
# [13] = qHTS assay for small molecule activators of the heat shock response signaling pathway (AID 743210; active = well fitted activation curve with a large enough effect in the signal ratio in the repeat runs, with a control signal flat, not every such curve was filed as active; inconclusive = weak or mixed curves; the % refers to the signal ratio; also: potency is read from the fitted curve at half-maximal effect); details: HeLa HSE-bla reporter, beta-lactamase ratio, 5 h; activation: at 62.6 µM (top of the series) unless noted
# Procedure, shortened: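 Beta-lactamase reporter read-out: FRET substrate fluorescence after 2.5 h at RT, following 5 h compound treatment at 37 C of HeLa cells carrying HSE-driven bla reporter; quantitative HTS format.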
# [14] = target: Bile acid receptor (Homo sapiens) (UniProt Q96RI1); assay: qHTS assay to identify small molecule antagonists of the farnesoid-X-receptor (FXR) signaling pathway (AID 743217; active = well fitted inhibition curve with a large enough effect in the signal ratio in the repeat runs, not every such curve was filed as active; inconclusive = weak or mixed curves, or effect the other way; inactive = no such curve, though single readings can be large or run the other way; the % refers to the signal ratio; also: potency is read from the fitted curve at half-maximal effect); details: HEK293T FXR-UAS-bla, beta-lactamase ratio, CDCA-stimulated, 16 h; activity change, negative = inhibition: at 62.6 µM (top of the series) unless noted
# Procedure, shortened: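 Cells carrying a UAS-driven beta-lactamase reporter (GeneBLAzer FXR-UAS-bla HEK 293T) were plated and rested 5 h at 37 °C. Compounds in DMSO were added alongside chenodeoxycholic acid agonist at 50 uM final and left 16 h at 37 °C before FRET substrate readout.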
# [15] = activation: at 73.3 µM (top of the series) unless noted
# Tags tell the direction and shape of the fitted curve or compound fluorescence and quenching.
# Sequence of UniProt P11473 (P11473 whole entry, looked up): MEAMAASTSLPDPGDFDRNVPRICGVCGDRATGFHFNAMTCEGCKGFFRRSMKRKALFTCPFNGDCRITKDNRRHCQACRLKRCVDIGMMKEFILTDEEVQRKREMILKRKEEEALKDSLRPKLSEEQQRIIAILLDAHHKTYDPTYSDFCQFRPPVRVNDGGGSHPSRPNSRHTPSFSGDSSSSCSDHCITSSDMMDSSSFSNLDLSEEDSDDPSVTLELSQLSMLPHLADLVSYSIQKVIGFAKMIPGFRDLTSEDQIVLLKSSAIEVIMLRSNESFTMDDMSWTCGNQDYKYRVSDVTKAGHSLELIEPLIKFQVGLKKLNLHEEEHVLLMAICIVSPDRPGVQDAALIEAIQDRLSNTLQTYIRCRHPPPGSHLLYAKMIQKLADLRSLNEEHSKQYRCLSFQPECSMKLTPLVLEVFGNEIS
# Sequence of UniProt Q03181 (Q03181 whole entry, looked up): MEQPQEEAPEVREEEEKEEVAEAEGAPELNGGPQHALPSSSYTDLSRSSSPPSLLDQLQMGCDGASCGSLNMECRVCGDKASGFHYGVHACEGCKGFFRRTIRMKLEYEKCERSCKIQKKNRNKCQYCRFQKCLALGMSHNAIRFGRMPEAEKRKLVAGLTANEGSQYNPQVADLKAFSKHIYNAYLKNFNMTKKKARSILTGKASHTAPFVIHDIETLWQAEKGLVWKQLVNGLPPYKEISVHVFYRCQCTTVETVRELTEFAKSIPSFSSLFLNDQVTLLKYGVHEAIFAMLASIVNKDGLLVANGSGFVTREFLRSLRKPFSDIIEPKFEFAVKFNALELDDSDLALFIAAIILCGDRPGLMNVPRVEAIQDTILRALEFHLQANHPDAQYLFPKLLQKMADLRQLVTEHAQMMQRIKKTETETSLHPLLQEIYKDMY
# Sequence of UniProt Q96RI1 (Q96RI1 whole entry, looked up): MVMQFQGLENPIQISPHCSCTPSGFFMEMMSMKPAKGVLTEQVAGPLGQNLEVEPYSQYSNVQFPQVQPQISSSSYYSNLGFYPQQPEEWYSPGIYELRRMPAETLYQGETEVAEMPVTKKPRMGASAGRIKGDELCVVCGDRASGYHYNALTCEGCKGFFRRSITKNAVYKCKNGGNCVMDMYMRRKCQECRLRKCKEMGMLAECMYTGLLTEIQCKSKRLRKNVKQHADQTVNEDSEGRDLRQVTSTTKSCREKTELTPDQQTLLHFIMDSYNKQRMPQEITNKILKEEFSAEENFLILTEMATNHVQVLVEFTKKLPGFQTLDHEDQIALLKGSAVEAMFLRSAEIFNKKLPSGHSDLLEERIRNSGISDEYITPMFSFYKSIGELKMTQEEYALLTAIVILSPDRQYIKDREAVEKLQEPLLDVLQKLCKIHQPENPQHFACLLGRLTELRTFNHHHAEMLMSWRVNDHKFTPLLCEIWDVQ
structure (smiles),measurement,setting,value
COc1ccc(Nc2ccccc2)c(C)c1,activation,[1]; [15],inconclusive: -12.2%
same,Potency,[2],"inconclusive: 48.6 µM [cytotoxic, partial curve, poor fit]"
same,Potency,[3],"inconclusive: 489 nM [cytotoxic, single point] and inconclusive: 436 nM [cytotoxic, single point]"
same,Potency,[4],"inconclusive: 34.7 µM [cytotoxic, partial curve, poor fit]"
COc1cc(OC)c(C(=O)CCCN2CCCC2)c(OC)c1,activation,[1]; [15],inconclusive: -4.99%
COc1c2ccoc2cc2oc(=O)ccc12,activation,[1]; [15],inconclusive: -7.38%
same,activation,[1]; at 94.8 µM (top of the series),inactive: 4.2%
same,Potency,[5],"inconclusive: 2.82 µM [rising, full curve, poor fit]"
same,Potency,[6],"inactive and inconclusive: 19.5 µM [cytotoxic, single point]"
Cc1ccc2ncccc2c1,activation,[1]; [15],inconclusive: 1.92%
same,activation,[1]; at 73.3 µM (top of the series),inactive: -2.23%
same,"ratio activity, negative = inhibition",[7],inconclusive: 9.28%
same,Potency,[5],"inconclusive: 6.92 µM [rising, full curve, poor fit]"
same,Potency,[8],inactive
same,Potency,[6],"inconclusive: 61.6 µM [rising, partial curve, poor fit]"
CCNC(=S)NCC,activation,[1]; [15],inconclusive: -15.5%
same,activation,[1]; at 73.3 µM (top of the series),inactive: -4.35%
same,Potency,[9],inactive
same,Potency,[10],inactive
same,Potency,[3],inactive
same,Potency,[11],inactive
same,Potency,[12],"inconclusive: 38.9 µM [fluorescent, single point]"
COc1cc(C)cc(O)c1,activation,[1]; [15],inconclusive: 29.8%
Cc1ccc(C(C)C)cc1,activation,[1]; [15],inconclusive: 0% [at 94.8 µM]
same,activation,[1]; at 73.3 µM (top of the series),inactive: -3.12%
same,Potency,[7],inactive
same,Potency,[12],inactive
CC(=O)OC(C)(C)C1CC=C(C)CC1 (stereo not drawn),activation,[1]; [15],inconclusive: 13.4%
same,activation,[1]; at 73.3 µM (top of the series),inactive: -4.58%
same,Potency,[13],inactive
same,Potency,[3],inactive
same,Potency,[7],inactive
same,Potency,[5],"inconclusive: 0.0107 µM [rising, full curve, poor fit]"
same,Potency,[4],"inconclusive: 61.6 µM [cytotoxic, partial curve, poor fit]"
CC(C)OC(=O)CCCCC(=O)OC(C)C,Potency,[1]; [15],active: 30.7 µM
same,Potency,[2],inactive
same,"ratio activity, negative = inhibition",[7],inconclusive: -35.7%
same,Potency,[14],active: 24.6 µM
same,Potency,[12],inactive
COc1ccc(CN(CCN(C)C)c2ccccn2)cc1,activation,[1]; [15],inconclusive: -10.6%
same,activation,[1]; at 73.3 µM (top of the series),inactive: 0.0216%
same,activation,[1]; at 94.8 µM (top of the series),inactive: 1.11%
same,Potency,[3],"inconclusive: 24.3 µM [cytotoxic, partial curve, poor fit] and inconclusive: 22.6 µM [cytotoxic, single point]"
same,Potency,[5],"inconclusive: 24.3 µM [cytotoxic, partial curve]"
same,Potency,[4],"inconclusive: 1.72 µM [cytotoxic, full curve, poor fit]"
C=CCCCCCCCCC(=O)O,activation,[1]; [15],inconclusive: 10.5%
same,activation,[1]; at 73.3 µM (top of the series),inactive: 13.5%
same,Potency,[9],"inconclusive: 33.5 µM [cytotoxic, single point]"
same,Potency,[3],"inconclusive: 29.8 µM [rising, partial curve, poor fit]"
same,Potency,[12],inactive
same,Potency,[6],"inconclusive: 4.25 µM [rising, partial curve, poor fit]"
Oc1ccc(/C=C/c2cc(O)cc(O)c2)cc1,Potency,[1]; [15],inconclusive: 15.5 µM and active: 19.3 µM and active: 18.8 µM
same,Potency,[2],inactive
same,Potency,[3],"inactive and inconclusive: 11 µM [cytotoxic, full curve, poor fit] and inconclusive: 596 nM [cytotoxic, full curve, poor fit]"
same,Potency,[7],"inconclusive: 33.5 µM [activator, single point]"
same,Potency,[14],"inconclusive: 7.83 µM [inhibitor, partial curve, poor fit] and active: 24.5 µM and inconclusive: 33.5 µM [inhibitor, partial curve, poor fit]"
same,Potency,[5],"inconclusive: 0.0025 µM [rising, full curve, poor fit]"
same,Potency,[11],"inconclusive: 3.09 µM [rising, full curve, poor fit]"
same,"activity change, negative = inhibition",[12],inconclusive: -6.95%
same,Potency,[4],"inconclusive: 13.8 µM [cytotoxic, partial curve, poor fit]"
CC(CCO)CC(C)(C)C (stereo not drawn),activation,[1]; [15],inconclusive: -7.13%
same,activation,[1]; at 94.8 µM (top of the series),inactive: -0.326%
same,Potency,[9],"inconclusive: 24.5 µM [cytotoxic, single point]"
same,Potency,[11],inactive
same,Potency,[12],"inconclusive: 1.55 µM [inhibitor, full curve, poor fit]"
same,"activity change, negative = inhibition",[12],inconclusive: 1.03% [at 78.8 µM]
same,Potency,[6],"inconclusive: 44.9 µM [rising, single point]"
Nc1ccccc1[N+](=O)[O-],Potency,[1]; [15],inactive
same,Potency,[2],inactive
same,Potency,[13],inactive
same,Potency,[5],"inconclusive: 3.5 µM [rising, partial curve, poor fit]"
O=S(=O)(O)c1cc(I)c(O)c2ncccc12,Potency,[1]; [15],"inconclusive: 3.35 µM [rising, full curve]"
CN(C)Cc1cc(CN(C)C)c(O)c(CN(C)C)c1,Potency,[1]; [15],"inconclusive: 21.7 µM [falling, full curve]"
same,Potency,[13],"inconclusive: 54.9 µM [activator, single point]"
same,Potency,[9],"inconclusive: 1.1 µM [cytotoxic, partial curve, poor fit]"
same,"viability change, negative = cytotoxic",[3],inconclusive: -33% [cytotoxic]
same,"activity change, negative = inhibition",[14],inconclusive: 0.803%
same,Potency,[4],"inconclusive: 15.5 µM [cytotoxic, full curve]"
